Experimental data as given in PubChem BioAssay AID1508642 (National Center for Advancing Translational Sciences (NCATS), 2021).
The whole screen tested about 43,000 compounds, of which about 200 (0.47%) were called active. Not shown: some 12% with an inconclusive outcome. The call rests on the fitted dose curve; in most records, active means well fitted cell-killing curve with a large enough effect; inconclusive means small, poorly fitted or top-dose-only effect, or effect the other way; inactive means flat fitted curve, though single readings scatter. This is one part of the list.

Test: Cell viability qHTS assay in S16 Pmp22-F2sN cells; further: nearly all actives have a fitted effect of over 65% in size
Settings: S16 Pmp22-F2sN Schwann cells viability, CellTiter-Glo, 24 h; series mostly up to 57.5 µM; activity change, negative = cytotoxicity: at the top concentration
How it was run: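 Used to flag compounds lowering reporter output through toxicity, this quantitative HTS measures ATP-based CellTiter-Glo luminescence in S16 Pmp22-F2sN Schwann cells after 24 h compound exposure at 37C.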
On the % scale 0 is the no-effect control and ±100 the full control effect.

Compound | activity change, negative = cytotoxicity
CC(C)n1cc2c(c1-c1ccccc1Cl)c(=O)n(C)c(=O)n2C | inactive: -7.21%
Cc1ccc(C(C)C)c(OCC(=O)NCC2(N3CCOCC3)CCCCC2)c1 | inactive: -29.8%
Cc1cccc(C(=O)Nc2cccc(OCc3cc(=O)n4cc(C)sc4n3)c2)c1 | inactive: 15.9%
Cn1ccc2cc(S(=O)(=O)N3CCCC(C(=O)NCc4ccc(F)cc4)C3)ccc21 (configuration not stated) | inactive: -3.33%
O=C(NC1(C(F)(F)F)N=C(c2ccccc2)N(C2CCCCC2)C1=O)c1ccc(F)cc1 (configuration not stated) | inactive: 1.47%
Cc1cc(C)n(CCc2nc3c4ccccc4nc(SCc4ccc(Cl)cc4)n3n2)n1 | inactive: 4.91%
CCOc1ccccc1-c1noc(CCCC(=O)Nc2cccc(C(F)(F)F)c2)n1 | inactive: -16.6%
O=C(CSc1nc(-c2ccc(F)cc2)nc2c1Cc1ccccc1O2)Nc1cccc(C(=O)O)c1 | inactive: 5.54%
N#Cc1cccc(NC(=O)C2CCN(c3cnccn3)CC2)c1 | inactive: -13.5%
CC(=O)Nc1ccc(NC(=O)c2cc3c(=O)n(Cc4cccnc4)ccc3nc2C)cc1 | inactive: 2.14%
COc1cc(NC(=O)C2CCN(S(=O)(=O)c3c(C)noc3/C=C/c3cccs3)CC2)cc(OC)c1 | inactive: -5.9%
CCN1C(=O)c2ccccc2S(=O)c2ccc(C(=O)NCc3ccc(C)cc3)cc21 (configuration not stated) | inactive: 0.607%
Cc1ccc2c(c1)c(=O)c(C(=O)c1ccccc1)cn2Cc1ccccc1F | inactive: -6.75%
CCOc1cccc(C(=O)Nc2nnc(S(=O)(=O)N(C)c3ccc(C)cc3)s2)c1 | inactive: 0.0428%
COc1ccc(NC(=O)CC2C(=O)N(c3ccccc3)C(=O)N2CCC2=CCCCC2)cc1 (configuration not stated) | inactive: -18.3%
COc1ccc(/C=C(/C#N)c2nc(-c3cc4ccccc4oc3=O)cs2)cc1 | inactive: 2.94%
CCC1CN(C(=O)Nc2ccccc2C(F)(F)F)c2ccccc2O1 (configuration not stated) | inactive: 0.0669%
CCOc1ccccc1C1C(C(N)=O)=C(C)Nc2nc(-c3ccccc3Cl)nn21 (configuration not stated) | inactive: -5.17%
Cc1cccc(N2CC(c3nc4ccc(C)cc4[nH]3)CC2=O)c1 (configuration not stated) | inactive: 0.423%
COc1ccc(-c2nc(SCC(=O)c3ccc(Br)cc3)n[nH]2)cc1 | inactive: -8.93%
Cc1c(CNC2CCC(C)CC2)c(C(=O)O)c(C)n1Cc1ccccc1F (configuration not stated) | inactive: 14%
CCc1ccc(Nc2cc(C)nc3nc(Cc4ccc(Cl)cc4)nn23)cc1 | inactive: 1.11%
Cc1cccc(NC(=O)CSc2nc3ccc(NC(=O)c4cccs4)cc3s2)c1 | inactive: 0.433%
CC(C)c1ccc(OCc2cc(=O)n3c4c(sc3n2)CCCC4)cc1 | inactive: 8.75%
COc1ccc(-c2oc3ncn4nc(-c5ccc(Cl)cc5)nc4c3c2-c2ccc(OC)cc2)cc1 | inactive: 9.22%
CCN(CC)CCN(C(=O)c1ccco1)c1nc2c(C)cccc2s1 | inactive: -8.09%
COc1ccccc1NC(=O)CN(c1ccc(C(C)C)cc1)S(=O)(=O)c1c(C)noc1C | inactive: -16.4%
